{
  "source": "the RNAGym collection of RNA variant scans (doi:10.7554/elife.90254)",
  "parents": {"B1": {"name": "OR4K15 (parent)", "chain": "GUUAACGGUCAUAGGCCAUGGAAACUAGGAGCACCAUUUCGCUGCCAGUGAAGAAAUGAACAAAGAAAAUCUGGGCCAGGCAGGCAUCAAAAGAAAUAGUCUUGCGCUCAACCAGAAAGUCUGUAAUCAUUUUAAGGGUA"}},
  "note": "Read counts are not given, so values of variants with three or more changes are uncertain.",
  "data": [
    {"variants_of": "B1", "experiment": "self-cleavage, relative activity (ratio to wild type); higher = more cleavage; in vitro, sequencing; the parent is a self-cleaving ribozyme", "values": [
      {"variant": "U2C A66G C113U", "self-cleavage": 0.06},
      {"variant": "U2C A18C U70A", "self-cleavage": 0.37},
      {"variant": "U2C C17A G53U A67G", "self-cleavage": 0.94},
      {"variant": "U2C A51G A54G A56C A82G A91G A129G", "self-cleavage": 0.03},
      {"variant": "U2C A24C A82G U97C U122C A140G", "self-cleavage": 0.21},
      {"variant": "U2C U9C A69G", "self-cleavage": 1.6},
      {"variant": "U2C A69G A89U U108C", "self-cleavage": 0.07},
      {"variant": "U2C A69G U87C C121U", "self-cleavage": 1.19},
      {"variant": "U2C A24C A54G A117U", "self-cleavage": 0.23},
      {"variant": "U2C U37C A82G U132A", "self-cleavage": 0.25},
      {"variant": "U2C A11G U72A", "self-cleavage": 0.27},
      {"variant": "U2C U9A A59G A129G", "self-cleavage": 0.44},
      {"variant": "U2C A23G U43A A96G", "self-cleavage": 1.45},
      {"variant": "U2C A24G U39C U70A A89G", "self-cleavage": 1.03},
      {"variant": "U2C A89G A94G U102C", "self-cleavage": 1.46},
      {"variant": "U2C A24G G79A A95G U124G U127C", "self-cleavage": 0.03},
      {"variant": "U2C A62G A90G U108C", "self-cleavage": 0.03},
      {"variant": "U2C G8A U43G", "self-cleavage": 1.63},
      {"variant": "U2C U12A U39G", "self-cleavage": 0.87},
      {"variant": "U2C A33G A68G U102C U122C", "self-cleavage": 0.93},
      {"variant": "U2C U3C C45U U122C", "self-cleavage": 0.85},
      {"variant": "U2C G21A G44A A60G A95G A135G", "self-cleavage": 1.39},
      {"variant": "U2C A27G U39C U120C", "self-cleavage": 0},
      {"variant": "U2C A36U A135U", "self-cleavage": 0.55},
      {"variant": "U2C A67U U87C", "self-cleavage": 1.58},
      {"variant": "U2C G14A A64G A86U", "self-cleavage": 0.6},
      {"variant": "U2C A56G A69U A96G", "self-cleavage": 0.8},
      {"variant": "U2C U19A A67G A78G U139C", "self-cleavage": 0.32},
      {"variant": "U2C A11G U124A", "self-cleavage": 0.3},
      {"variant": "U2C A11G A129G", "self-cleavage": 0.14},
      {"variant": "U2C A23U A98U C109A", "self-cleavage": 0.62},
      {"variant": "U2C U37C A60G C88U U131C", "self-cleavage": 0.12},
      {"variant": "U2C A11G U19C A96G A110G U127C U132C", "self-cleavage": 0.05},
      {"variant": "U2C A60G U124A", "self-cleavage": 0.31},
      {"variant": "U2C U9C C40U U43A A64G A116U", "self-cleavage": 0.5},
      {"variant": "U2C A66U U120C U130C", "self-cleavage": 0.25},
      {"variant": "U2C C16G C71A A86U A116U", "self-cleavage": 0.15},
      {"variant": "U2C C61A A63U A117G", "self-cleavage": 0.62},
      {"variant": "U2C A18U A68G U132A", "self-cleavage": 0.6},
      {"variant": "U2C U38C U132A", "self-cleavage": 1.4},
      {"variant": "U2C A22G A59G A89G A90G", "self-cleavage": 1.12},
      {"variant": "U2C A52C A56G", "self-cleavage": 1.09},
      {"variant": "U2C U39A A55G A110G A118G U132C", "self-cleavage": 0.14},
      {"variant": "U2C A30U A62U C85U A117G", "self-cleavage": 1.42},
      {"variant": "U2C A30G A118G", "self-cleavage": 1.04},
      {"variant": "U2C A51G A89G", "self-cleavage": 1.54},
      {"variant": "U2C A11C U49C A116U", "self-cleavage": 0.15},
      {"variant": "U2C U37C G136U", "self-cleavage": 1.71},
      {"variant": "U2C A36U A67G A78G A82U", "self-cleavage": 0.07},
      {"variant": "U2C A95U A96G", "self-cleavage": 0.64},
      {"variant": "U2C A13G G41A A55U A95G", "self-cleavage": 1.16},
      {"variant": "U2C A24U A52G A78G A98C A114G", "self-cleavage": 0.01},
      {"variant": "U2C A30U A66G", "self-cleavage": 1.31},
      {"variant": "U2C A52C A66G", "self-cleavage": 1.1},
      {"variant": "U2C U12C G48A A54G", "self-cleavage": 1.15},
      {"variant": "U2C A33G A52G U131C", "self-cleavage": 0.57},
      {"variant": "U2C U37C A140G", "self-cleavage": 0.79},
      {"variant": "U2C A33U U49C A52G G104A U120A", "self-cleavage": 0.02},
      {"variant": "U2C A55G A69G U108C", "self-cleavage": 0.05},
      {"variant": "U2C A5G U57C A67G A86G A91G A94G", "self-cleavage": 0.1},
      {"variant": "U2C G7U A27U U37C A55G A114C A134U", "self-cleavage": 0.04},
      {"variant": "U2C A55G A96G U132C U139C", "self-cleavage": 0.93},
      {"variant": "U2C A22G U37A U39C A52G A82G A114G", "self-cleavage": 0.37},
      {"variant": "U2C A68G A69U A86G A134U", "self-cleavage": 1.18},
      {"variant": "U2C U38C A90G", "self-cleavage": 1.27},
      {"variant": "U2C A66C A96G", "self-cleavage": 0.84},
      {"variant": "U2C G41A A54G A62G A64G A96G", "self-cleavage": 1.11},
      {"variant": "U2C A5U U9A", "self-cleavage": 1.46},
      {"variant": "U2C A22G A59U A68G", "self-cleavage": 0.36},
      {"variant": "U2C A36U U57A A68G G73A", "self-cleavage": 0.22},
      {"variant": "U2C A30G U38C U103C", "self-cleavage": 0.69},
      {"variant": "U2C U26C U39A A68G", "self-cleavage": 0.95},
      {"variant": "U2C U26C U49C U57C A78U", "self-cleavage": 0.16},
      {"variant": "U2C A23U A24G U37C U43A", "self-cleavage": 0.87},
      {"variant": "U2C U3A A114G", "self-cleavage": 0.34},
      {"variant": "U2C A24C A68U A90G", "self-cleavage": 1.62},
      {"variant": "U2C A68G A82C U120A", "self-cleavage": 0.14},
      {"variant": "U2C A51G U57C", "self-cleavage": 1.26},
      {"variant": "U2C A51G A135G", "self-cleavage": 0.68},
      {"variant": "U2C U9C A67G A78G", "self-cleavage": 0.42},
      {"variant": "U2C A51U C77A A78G", "self-cleavage": 0.55},
      {"variant": "U2C U19A U127A", "self-cleavage": 2.81},
      {"variant": "U2C U26A A59G U120C", "self-cleavage": 0.16}
    ]}
  ]
}
